Assay results published in the supplement of paper PMC3334620.
Over roughly 33,000 sequences, “E-score (-0.5 to 0.5)” has its median near -0.017; the highest 2% begin near 0.3. This is one part of the list.

target: T1, Sut1 (UniProt P53032); assay: PBM E-score (8-mer binding enrichment) (E-score (-0.5 to 0.5)); higher = stronger / more preferred TF binding; most listed sequences are background and not binding sites; details: protein concentration: 200 nM; construct: GST-full length
T1 sequence: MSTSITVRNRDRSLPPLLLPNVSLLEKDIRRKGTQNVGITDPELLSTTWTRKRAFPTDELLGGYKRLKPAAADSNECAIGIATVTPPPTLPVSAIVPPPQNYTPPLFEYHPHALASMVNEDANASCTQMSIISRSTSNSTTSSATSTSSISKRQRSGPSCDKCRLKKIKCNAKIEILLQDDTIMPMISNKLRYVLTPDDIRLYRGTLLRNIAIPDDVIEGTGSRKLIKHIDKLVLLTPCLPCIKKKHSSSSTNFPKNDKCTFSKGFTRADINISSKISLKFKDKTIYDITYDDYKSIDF
Experimental: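 Universal 'all 10-mer' protein binding microarrays (Agilent AMADID 015681) probed with GST-tagged S. cerevisiae TFs (full-length or DBD) made by in vitro transcription/translation (PURExpress), about 100-200 nM. Bound TF was detected with fluorescent anti-GST. Each ungapped 8-mer (which stands for itself and its reverse complement) is scored by the PBM enrichment score (E-score), a modified Wilcoxon-Mann-Whitney statistic from -0.5 to +0.5, computed with the Universal PBM Analysis Suite. Scale: above 0.35 generally sequence-specific binding.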

Going from AATGTTAA to CAAGCAAG, the “PBM E-score” value falls from 0.217 to -0.13.

Going from GGAGATCC to TTGCAAAA, the “PBM E-score” value falls from 0.245 to 0.216.

Going from AATGTCTA to GACCCGTC, the “PBM E-score” value falls from 0.118 to -0.239.

Going from CGGGGGGA to CTAAGTTC, the “PBM E-score” value rises from -0.486 to -0.0983.

Going from AACATATA to AGGGCTGG, the “PBM E-score” value falls from 0.223 to -0.131.

Compared with CATTTGGA, AGAGTTCA is lower in “PBM E-score” value: 0.112 for the first, -0.0646 for the second.

Compared with ACCCATTC, ATTACTAA is higher in “PBM E-score” value: 0.0138 for the first, 0.191 for the second.

First: GGGGGCCA
Second: ACATGCTG
The “PBM E-score” value of the first is lower: -0.294 for the first, -0.22 for the second.

Going from ATACTATG to AATAAAAC, the “PBM E-score” value rises from 0.141 to 0.244.

First: GGCAAGTA
Second: CATGATTC
The “PBM E-score” value of the first is higher: -0.0619 for the first, -0.0967 for the second.

Compared with GTCAGAAA, ACACAACC is lower in “PBM E-score” value: 0.0805 for the first, -0.0372 for the second.

Going from ATAATGGA to CGTGCAGC, the “PBM E-score” value falls from 0.0951 to -0.0878.

Going from CGAAGTGC to GTATTCCA, the “PBM E-score” value rises from -0.018 to -0.00791.

Compared with TTACTAAA, CCTAGGCG is lower in “PBM E-score” value: 0.144 for the first, -0.317 for the second.

Compared with GACGGGGC, CAACGTTA is higher in “PBM E-score” value: -0.17 for the first, 0.0883 for the second.

First: AATTCACA
Second: CCCGTAGC
The “PBM E-score” value of the first is higher: 0.171 for the first, -0.198 for the second.

Going from AATAAGCG to CTACACAC, the “PBM E-score” value rises from -0.162 to -0.055.

First: GTTACTCA
Second: CTTGCGCA
The “PBM E-score” value of the first is higher: 0.114 for the first, -0.056 for the second.

First: CGGGATGC
Second: CGTGATGC
The “PBM E-score” value of the first is higher: -0.143 for the first, -0.155 for the second.

Going from CCGACGGC to GCGCATTA, the “PBM E-score” value rises from -0.175 to 0.069.

First: AGATCTTA
Second: ATCAAGCG
The “PBM E-score” value of the first is higher: 0.106 for the first, -0.2 for the second.

Compared with CATTTCGC, CTTTGCGC is higher in “PBM E-score” value: 0.00375 for the first, 0.0622 for the second.

Compared with AAAATGAA, CGACGGAC is higher in “PBM E-score” value: 0.0412 for the first, 0.349 for the second.

Compared with CCATTGGA, GATGTGTA is higher in “PBM E-score” value: -0.0647 for the first, 0.105 for the second.

First: ACATGCGT
Second: GTTTGAAA
The “PBM E-score” value of the first is lower: -0.0649 for the first, 0.247 for the second.

First: ACAATGTG
Second: GCCACATA
The “PBM E-score” value of the first is lower: -0.0511 for the first, -0.0199 for the second.

Compared with CGCTTACC, CACCACCA is higher in “PBM E-score” value: -0.0431 for the first, 0.0206 for the second.

Compared with AAATGCGG, CCTTAACG is lower in “PBM E-score” value: 0.185 for the first, -0.00386 for the second.

First: ACCACGTA
Second: GAAGGATC
The “PBM E-score” value of the first is lower: -0.231 for the first, -0.168 for the second.

Going from AGTGCGTA to CGAGGAAG, the “PBM E-score” value rises from 0.00152 to 0.0543.

Going from GACAGTGC to ACTTCTCA, the “PBM E-score” value falls from -0.004 to -0.033.

First: CAATACCG
Second: CGTGAGCA
The “PBM E-score” value of the first is higher: -0.0551 for the first, -0.196 for the second.

Compared with ATTTTACC, GTTTGGAA is lower in “PBM E-score” value: 0.352 for the first, 0.101 for the second.

First: CGCTTCCA
Second: ATAGGCGG
The “PBM E-score” value of the first is lower: 0.0245 for the first, 0.103 for the second.

First: CGCGACAC
Second: GGACAGAC
The “PBM E-score” value of the first is higher: 0.0583 for the first, -0.169 for the second.

Compared with CCTTTCAG, CAAGTTAC is higher in “PBM E-score” value: -0.203 for the first, 0.168 for the second.

Going from GGAGCGCA to CCTTATGA, the “PBM E-score” value rises from -0.225 to -0.0897.

First: TCAGACCA
Second: AGCTTGAA
The “PBM E-score” value of the first is higher: 0.0278 for the first, 0.00711 for the second.

First: GAACTAAA
Second: ATCATCTG
The “PBM E-score” value of the first is higher: 0.17 for the first, -0.116 for the second.

Compared with ACCATTTG, AAGATTTC is higher in “PBM E-score” value: 0.066 for the first, 0.2 for the second.

Going from AGTAGCTG to AACTATAT, the “PBM E-score” value rises from 0.0471 to 0.276.

Compared with GAGGCGTA, CGTGCTAG is lower in “PBM E-score” value: 0.00054 for the first, -0.234 for the second.

Going from CAGTCCCG to CGTGTCAA, the “PBM E-score” value falls from -0.0578 to -0.179.
